In the GPR68 mutational scans of Howard et al. (2025) one finds cAMP reporter score and surface expression score data, which are given here for 31 variants.

Scores with a large standard error are left out. Not listed are two conditions whose scores span a narrow range. In variant names, del marks residues removed and ins residues inserted between the two positions. For some assays here: The data file names ogerin without a concentration.

Sequences and labels used below:
B1: GPR68, Q15743 (parent)
chain: MGNITADNSSMSCTIDHTIHQTLAPVVYVTVLVVGFPANCLSLYFGYLQIKARNELGVYLCNLTVADLFYICSLPFWLQYVLQHDNWSHGDLSCQVCGILLYENIYISVGFLCCISVDRYLAVAHPFRFHQFRTLKAAVGVSVVIWAKELLTSIYFLMHEEVIEDENQHRVCFEHYPIQAWQRAINYYRFLVGFLFPICLLLASYQGILRAVRRSHGTQKSRKDQIQRLVLSTVVIFLACFLPYHVLLLVRSVWEASCDFAKGVFNAYHFSLLLTSFNCVADPVLYCFVSETTHRDLARLRGACLAFLTCSRTGRAREAYPLGAPEASGKSGAQGEEPELLTKLHPAFQTPNSPGSGGFPTGRLA

Data set [1] covers variants of B1. Briefly: cAMP reporter score (Enrich2 score, wild type = 0); higher = more signal; HEK293T, FACS bins.
Data set [2] covers variants of B1. Briefly: surface expression score (Enrich2 score, wild type = 0); higher = more signal; HEK293T, FACS bins.

Regarding V27_Y28insG, the cAMP reporter score in data set [1] (pH 5.5) is -1.37; in data set [1] (pH 6.5, modulator: ogerin), -0.894. Further, the surface expression score in data set [2] was -2.62.
Consider V29_V31del, for which the cAMP reporter score in data set [1] (pH 5.5) was -1.73; in data set [1] (pH 6) it was -1.59; in data set [1] (pH 6, modulator: ogerin), -2.4; in data set [1] (pH 6.5, modulator: ogerin) it was -0.772. Further, the surface expression score in data set [2] is -2.11.
N39_C40insGSG: the cAMP reporter score is -0.489 in data set [1] (pH 5.5); -0.597 in data set [1] (pH 6); -1.9 in data set [1] (pH 6, modulator: ogerin); -1.22 in data set [1] (pH 6.5, modulator: ogerin). In addition, the surface expression score in data set [2] was -2.69.
Taken in the same sequence, the figures for V34del were -1.76, 0.656, -0.637, 1.28 and -2.48.
Take G35_F36insGSG: the cAMP reporter score in data set [1] (pH 5.5) was -1.33; in data set [1] (pH 6), -0.808; in data set [1] (pH 6, modulator: ogerin) it was -1.04; in data set [1] (pH 6.5, modulator: ogerin), -0.667. Besides, the surface expression score in data set [2] was -2.78.
Regarding C40K, the cAMP reporter score was -1.54 in data set [1] (pH 5.5); -1.66 in data set [1] (pH 6); -0.878 in data set [1] (pH 6.5, modulator: ogerin). Further, the surface expression score in data set [2] was -2.59.
For the variant C40H, the cAMP reporter score is -1.87 in data set [1] (pH 5.5); -0.768 in data set [1] (pH 6); -0.91 in data set [1] (pH 6, modulator: ogerin); -0.988 in data set [1] (pH 6.5, modulator: ogerin). The surface expression score in data set [2] is -0.974.
For C40E, the cAMP reporter score in data set [1] (pH 5.5) is -1.73; in data set [1] (pH 6, modulator: ogerin), -1.12; in data set [1] (pH 6.5, modulator: ogerin) it was -0.146. In data set [2], the surface expression score is -1.66.
For C40A, the cAMP reporter score in data set [1] (pH 5.5) was 0.297; in data set [1] (pH 6), -0.552; in data set [1] (pH 6, modulator: ogerin), 0.32; in data set [1] (pH 6.5, modulator: ogerin) it was -0.77. Also, the surface expression score in data set [2] is -0.958.
As to C40F, the cAMP reporter score was 0.065 in data set [1] (pH 5.5); -0.071 in data set [1] (pH 6); -0.331 in data set [1] (pH 6, modulator: ogerin); -0.368 in data set [1] (pH 6.5, modulator: ogerin). For the same variant, the surface expression score in data set [2] was -1.35.
Taken in the same sequence, the figures for C40I were 0.866, 0.888, 1.13, 1.34 and 1.52.
Regarding C40D, the cAMP reporter score was -2.39 in data set [1] (pH 5.5); -0.832 in data set [1] (pH 6); -0.693 in data set [1] (pH 6, modulator: ogerin); -0.627 in data set [1] (pH 6.5, modulator: ogerin).
For C40G, the cAMP reporter score in data set [1] (pH 5.5) was -0.709; in data set [1] (pH 6, modulator: ogerin) it was -0.962; in data set [1] (pH 6.5, modulator: ogerin), -1.34. In addition, the surface expression score in data set [2] is -0.291.
In the case of P25L, the cAMP reporter score in data set [1] (pH 5.5) was -1.21; in data set [1] (pH 6) it was -0.734; in data set [1] (pH 6, modulator: ogerin) it was -1.46; in data set [1] (pH 6.5, modulator: ogerin), -1.32. In data set [2], the surface expression score amounted to 0.629.
As to P25K, the cAMP reporter score in data set [1] (pH 5.5) is -0.636; in data set [1] (pH 6), -0.859; in data set [1] (pH 6, modulator: ogerin), -0.674; in data set [1] (pH 6.5, modulator: ogerin) it was -0.48. Further, in data set [2], the surface expression score stood at 1.76.
Taken in the same sequence, the figures for P25S were 0.276, -0.675, -0.165, -0.692 and 1.63.
Taken in the same sequence, the figures for P25W were -0.171, 0.194, -0.657, -0.828 and 1.58.
For the variant P25Q, the cAMP reporter score in data set [1] (pH 5.5) was -0.263; in data set [1] (pH 6), 0.137; in data set [1] (pH 6, modulator: ogerin) it was -0.896; in data set [1] (pH 6.5, modulator: ogerin), -1.22. For the same variant, the surface expression score in data set [2] came out at 1.37.
Take P25H: the cAMP reporter score in data set [1] (pH 5.5) was -1.34; in data set [1] (pH 6) it was -0.84; in data set [1] (pH 6, modulator: ogerin), -1.27; in data set [1] (pH 6.5, modulator: ogerin), -1.28. Moreover, the surface expression score in data set [2] is -0.336.
As to P25R, the cAMP reporter score in data set [1] (pH 5.5) is -1.06; in data set [1] (pH 6), -0.606; in data set [1] (pH 6, modulator: ogerin) it was -1.34; in data set [1] (pH 6.5, modulator: ogerin) it was -1.02. Moreover, the surface expression score in data set [2] worked out at 1.23.
Regarding P25G, the cAMP reporter score in data set [1] (pH 5.5) is -0.598; in data set [1] (pH 6), -0.587; in data set [1] (pH 6, modulator: ogerin), -0.997; in data set [1] (pH 6.5, modulator: ogerin) it was -1.06. For the same variant, the surface expression score in data set [2] amounted to 1.37.
P25F: the cAMP reporter score in data set [1] (pH 5.5) is -0.724; in data set [1] (pH 6), -0.2; in data set [1] (pH 6, modulator: ogerin) it was -1.06; in data set [1] (pH 6.5, modulator: ogerin), -0.81. In addition, the surface expression score in data set [2] was determined as 1.64.
The matching figures for P25M: -0.043, -0.214, -0.423, -0.439 and 2.33.
Taken in the same sequence, the figures for P25I were 0.254, -0.379, -0.276, -0.463 and 1.99.
Taken in the same sequence, the figures for P25T were -0.023, -0.503, -0.449, -0.955 and 1.66.
As to P25E, the cAMP reporter score in data set [1] (pH 5.5) was -0.687; in data set [1] (pH 6), -0.699; in data set [1] (pH 6, modulator: ogerin) it was -1.11; in data set [1] (pH 6.5, modulator: ogerin) it was -0.57. The surface expression score in data set [2] is -0.555.
P25V: the cAMP reporter score in data set [1] (pH 5.5) is -0.054; in data set [1] (pH 6), -0.27; in data set [1] (pH 6, modulator: ogerin), -0.736; in data set [1] (pH 6.5, modulator: ogerin), -0.296. Moreover, the surface expression score in data set [2] stood at 1.94.
With P25N, the cAMP reporter score was -1.02 in data set [1] (pH 5.5); -0.22 in data set [1] (pH 6); -1.17 in data set [1] (pH 6, modulator: ogerin); -0.819 in data set [1] (pH 6.5, modulator: ogerin). Also, the surface expression score in data set [2] came out at 0.906.
Taken in the same sequence, the figures for P25Y were -1.01, -0.525, -0.908, -0.462 and 1.26.
Taken in the same sequence, the figures for V26del were -1.84, -0.894, -1.81, -1.38 and -1.56.
With V26_V27insGS, the cAMP reporter score in data set [1] (pH 5.5) is -0.741; in data set [1] (pH 6), -1.25; in data set [1] (pH 6, modulator: ogerin), -0.981; in data set [1] (pH 6.5, modulator: ogerin), -0.947. Moreover, the surface expression score in data set [2] was -2.09.
